The text below walks through data of patent EP4613780A1 (Adlai Nortye Biopharma Co., Ltd., dated 2025).

Where a chain is given by its changes, count along the chain named. In names and notes the source's numbering stands.

In assay [1] the target is T1, human CD28 protein (Acro, CD8-H525a) (human, UniProt P10747 19-152).
T1 construct: coated on the ELISA plate; also called human CD28 antigen
As to the kind of experiment: ELISA, coated human CD28. A general note: In an ELISA, binding on a coated surface is turned into a signal by an enzyme label.

The target in assay [2] is T2, human CTLA4 protein (Acro, CT4-H52H9) (human, UniProt P16410 36-161).
T2 construct: coated on the ELISA plate; also called human CTLA4 antigen
T2 sequence (looked up): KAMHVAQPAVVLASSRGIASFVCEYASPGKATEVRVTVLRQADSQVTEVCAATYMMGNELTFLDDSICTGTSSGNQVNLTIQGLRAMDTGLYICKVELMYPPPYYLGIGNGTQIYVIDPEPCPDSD
As to the kind of experiment: ELISA, coated human CTLA4.

T1 sequence (P10747 19-152 limits assumed): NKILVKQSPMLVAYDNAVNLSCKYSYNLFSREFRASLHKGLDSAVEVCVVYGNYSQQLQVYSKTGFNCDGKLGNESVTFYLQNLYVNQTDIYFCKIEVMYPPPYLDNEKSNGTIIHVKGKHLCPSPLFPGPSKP

B1: functional antibody Abs-958 (other)
heavy: EVQLVESGGGLVQPGGSLRLSCAASGFTFNTYAMNWVRQAPGKGLEWVARIRSKYNNYATYYAASVKGRFTISRDDSKNSLYLQMNSLKTEDTAVYYCARHGNFGNSYVSWFAYWGQGTLVTVSS[left out - human IgG1 constant region]GGGGSGGGGSGGGGSGGGGSGAPLKIQAYFNETADLPCQFANSQNQSLSELVVFWQDQENLVLNEVYLGKEKFDSVHSKYMGRTSFDSDSWTLRLHNLQIKDKGLYQCIIHHKKPTGMIRIHQMNSELSVL
light: QTVVTQEPSLTVSPGGTVTLTCRSSTGAVTTSNYANWVQQKPGQAPRGLIGGTNKRAPGTPARFSGSLLGGKAALTLSGVQPEDEAEYYCALWYSNLWVFGGGTKLTVLGQPKAAPSVTLFPPSSEELQANKATLVCLISDFYPGAVTVAWKADSSPVKAGVETTTPSKQSNNKYAASSYLSLTPEQWKSHRSYSCQVTHEGSTVEKTVAPTECS
notes: CD3B219 heavy chain - unmutated CD86 IgV; CD3B219 light chain
Turning to B1, the EC50 in assay [1] came out at 30700 pM; in assay [2], 2890 pM.

B2: functional antibody Abs-959 (other)
heavy: EVQLVESGGGLVQPGGSLRLSCAASGFTFNTYAMNWVRQAPGKGLEWVARIRSKYNNYATYYAASVKGRFTISRDDSKNSLYLQMNSLKTEDTAVYYCARHGNFGNSYVSWFAYWGQGTLVTVSS[left out - human IgG1 constant region]GGGGSGGGGSGGGGSGGGGSGAPLKIQAYFNETADLPCQFANSQNISLSELVVLWQDQENLVLNEVYLGKEKFDSVHSKYMGRTSFDSDSWTLRLHNLQIKDKGLYQCIIIHKKPTGMIRIHQMNSELSVL
light: B1 light
notes: CD3B219 heavy chain - CD86 IgV Q25I/F33L/H90I; CD3B219 light chain
In the case of B2, the results for the EC50 in assay [1] and in assay [2] were 1880 pM and 783 pM, respectively.

B3: functional antibody Abs-355 (Fc fusion)
chain: APLKIQAYFNETADLPCQFANSQNVSLSELVVFWQDQENLVLNEVYLGKEKFDSVHSKYMGRTSFDSDSWTLRLHNLQIKDKGLYQCIIIHKKPTGMIRIHQMNSELSVL[left out - human IgG4 Fc]
notes: CD86 IgV Q25V/H90I - IgG4 Fc
On to B3, for which the EC50 worked out at 29.7 pM in assay [1] and 312 pM in assay [2].

B4: functional antibody Abs-357 (Fc fusion)
chain: B3 chain with V25F, I90V
notes: CD86 IgV Q25F/H90V - IgG4 Fc
In the case of B4, the values for the EC50 in assay [1] and in assay [2] were 81.4 pM and 779 pM, respectively.

B5: functional antibody Abs-356 (Fc fusion)
chain: B3 chain with V25F
notes: CD86 IgV Q25F/H90I - IgG4 Fc
Take B5: the EC50 in assay [1] stood at 64.7 pM; in assay [2], 598 pM.

The EC50 is the concentration giving half of the maximal effect. Read a low EC50 as greater potency.
